Each structure is given as a SMILES string.

This data set deals with patients with treatment-resistant major depressive disorder (TRD). As to the kind of experiment: Phase 1/2 clinical trial of inhaled 5-MeO-DMT in TRD patients (single 12 mg or 18 mg; IDR = individualized dosing regimen 6, 12, 18 mg in a single day).

As to `COc1ccc2[nH]cc(CCN(C)C)c2c1` [5-MeO-DMT], the “patients with at least one ADR” value is 3 of 4 (12 mg) and 3 of 4 (18 mg). Moreover, the “patients in MADRS remission” value (12 mg n=4, day 7) amounted to 50%. In addition, the “BPRS emotional withdrawal percentage improvement” value (IDR n=8, 3 h) is recorded as 35.46%. For the setting “IDR n=8, day 7”, the “patients in MADRS remission (total score <=10)” value was 87.5%. Also, the patients maintaining remission entry (IDR, day 7) is “⅞”. The patients achieving remission result (IDR, within 2 h after dosing) is given as “⅝”. Besides, the “serious adverse events (SAEs)” value is, setting by setting: (Part A, 12 mg and 18 mg) “No SAEs”; (Part B, IDR) “No SAEs”.

Source of the values: patent US20250170099A1, “TREATMENT OF POSTNATAL DEPRESSION” (GH RESEARCH IRELAND LIMITED, priority 2022, published 2025).
